The results in this text go back to PubChem BioAssay AID504648 (National Center for Advancing Translational Sciences (NCATS), 2011).

Each structure is given as a SMILES string. The campaign covered roughly 390,000 compounds. About 610 (0.16%) were called active. Not shown: some 4% with an inconclusive outcome. Calls come from the whole dose curve; as a rule, active = well fitted inhibition curve with a large enough effect; inconclusive = small, poorly fitted or top-dose-only effect, or effect the other way, or another doubt; inactive = no such curve, though single readings can be large or run the other way. This is a selection; strong and weak results do not stand in their true shares.
% is set by controls: 0 for no effect and ±100 for the full control effect; potency is the fitted concentration of half-maximal effect.

The nature of the test: Nrf2 qHTS screen for inhibitors: counterscreen for cytotoxicity. As to conditions: A549 ARE-Fluc cells, CellTiter-Fluor viability, 18-24 h; series mostly up to 46 µM; activity change, negative = cytotoxicity: at the top concentration. An excerpt:
NIH Molecular Libraries Probe Production Network [MLPCN]
NIH Chemical Genomics Center [NCGC]
Assay Provider: Shyam Biswal, Johns Hopkins University
Nrf2 is a transcription factor that maintains cellular redox homoestasis and protects cells from xenobiotics. Nrf2 binds to the antioxidant response element (ARE) to induce gene expression of a broad spectrum of genes that encode for antioxidants. […] Finding a small molecule that act as an inhibitor of Nrf2 function would represent a novel therapeutic target that could lead to improvement in survival of patients undergoing chemo- and/or radio- therapy.
So here we implemented a counterscreen to weed out the cytotoxic compounds.
1. Shibata, T., et al., Genetic Alteration of Keap1 Confers Constitutive Nrf2 Activation and Resistance to Chemotherapy in Gallbladder Cancer. Gastroenterology, 2008.
2. Sjoblom, T., et al., The consensus coding sequences of human breast and colorectal cancers. Science, 2006. 314(5797): p. 268-74.
NCGC Assay Protocol Summary:
A concentration-response assay was performed with A549 ARE_Fluc cells which are suspended in 5% FBS OPTI-MEM. Five uL were dispensed into 1536-well white TC-treated plate using the Kalypsys dispenser to achieve a density of 5000 cells/well in all columns except column 1. The plate is incubated at 37deg C at 5% CO2 for 2 hours before 23 nL of compounds are added with the Kalypsys pin tool equipped with a 1,536-pin array containing 10-nL slotted pins (FP1S10, 0.457-mm diameter, 50.8 mm long; V&P Scientific). The control compounds Budesonide and Staurosporine are both added at a concentration of 2mM and Budesonide is also added as a 1:10 titration, starting at 200uM, to achieve dose-response. After an 18-24 hour incubation at 37deg C at 5% CO2, 5ul of medium is added to column 1. Afterwards 1ul of 5x of CellTiter-Fluor (Promega) is added to every well. The plate is then incubated at 37deg C at 5% CO2 for 30 minutes before they are read on the ViewLux (Perkin Elmer) for a fluorescent read Ex=405(10)/Em=525(10) for a 3 second exposure, 2x binning, and high gain. Then 3 uL of 3x BugLite is dispensed into all wells and the plate is incubated at ambient room temperature for 15 minutes. Afterwards another ViewLux read is performed using the clear filter to get a luminescent read with the settings of 40 second exposure, 2x binning, and high gain. Cytotoxicity is assessed through the first fluorescent read and then biochemical activity against Nrf2 is measured in the luminescent read.
On the technique in general: Quantitative high-throughput screening tests each substance at several concentrations.
`COc1cccc(-n2c(C)nc3cc(C(=O)O)ccc32)c1`: the “activity change, negative = cytotoxicity” value was inactive: 3.98%. Same read-out and setting: for `CCC(=O)NC(c1ccc(C)cc1)c1ccc2cccnc2c1O` (stereo unspecified) the value was inactive: -12.1%. Turning to `COc1ccc(N2CCN(C(=O)c3ccc4c(=O)n(CCc5ccc(OC)c(OC)c5)c(=O)[nH]c4c3)CC2)cc1`, the “activity change, negative = cytotoxicity” value is inactive: -7.45%. As for `CN(C)CCCNc1cc(O)c2ncccc2c1`, the Potency is active: 10.3 µM. Take `CC1CCCN(CCCNC(=O)c2cc3c(Cl)nc4ccccc4c3s2)C1` (stereo unspecified): the “activity change, negative = cytotoxicity” value was inactive: -3.5%. On the same count and under the same terms, for `CCc1ccc(CNC(=O)C2CCN(c3nnc(C)c4c(C)n(-c5ccc(C)cc5)nc34)CC2)cc1` the value was inactive: -4.14%; for `Cc1cc(NC(=O)CSc2nc3c([nH]c4ccccc43)c(=O)n2-c2ccccc2F)no1`, inactive: -20.6%. With `CCCCc1c(C)c(C#N)c2nc3ccccc3n2c1NCCN(C)C`, the Potency was active: 6.51 µM. On to `C[C@@H](C(=O)N1CCN(c2ccccc2)CC1)N1C(=O)C2CC=CCC2C1=O` (stereo partly specified), for which the “activity change, negative = cytotoxicity” value was inactive: -0.744%.

For `CN1N/C(=C\c2ccccc2)N=C2C(=O)N(C)C(=O)N=C21`, the Potency is active: 5.8 µM.

In the case of `Nc1ccc(NC(=O)c2cccc(C(=O)Nc3ccc(N)cc3Cl)c2)c(Cl)c1`, the “activity change, negative = cytotoxicity” value was inactive: -10.1%.

On to `CN(CCCNC(=O)c1cc2c(Cl)nc3ccccc3c2s1)Cc1ccccc1`, for which the “activity change, negative = cytotoxicity” value is inactive: 9.65%. On to `CCCOc1ccc(C2C(C(=O)c3cc4ccccc4o3)=C(O)C(=O)N2c2cc(C)on2)cc1` (stereo unspecified), for which the Potency is active: 20.6 µM. For `CCOc1ccccc1CNC(=O)C1CCN(c2nnc(C)c3c(C)n(-c4ccc(C)cc4)nc23)CC1`, the “activity change, negative = cytotoxicity” value was inactive: -14.5%.

Turning to `COc1cc(C(CC(=O)N2CCCC2)c2c(OC)cc(OC)c3c(-c4ccccc4)cc(=O)oc23)cc(OC)c1OC` (stereo unspecified), the “activity change, negative = cytotoxicity” value is inactive: -6.17%. The same measure, in the same setting: for `CN1CCN(C(=O)CCN2C(=O)/C(=C/c3ccc(F)cc3)SC2=S)CC1` the value was inactive: -21.3%; for `CCOCCCn1c(=NC(C)=O)c(C(=O)OCC)cc2c(=O)n3ccccc3nc21`, inactive: -3.06%. For `CCO[C@@H]1OC(C(=O)NCc2ccccc2)=C[C@H](c2ccc(C(F)(F)F)cc2)[C@H]1CCCO`, the Potency was active: 16.4 µM. For `Cc1nn(C(C)C(=O)NCc2ccco2)c(=O)c2nn(-c3ccccc3)c(C)c12` (stereo unspecified), the “activity change, negative = cytotoxicity” value was inactive: -3.25%. Regarding `CCCCN(CC)CCNC(=O)CN1C(=O)COc2ccc(S(=O)(=O)N3CCCC3)cc21`, the “activity change, negative = cytotoxicity” value was inactive: 0.612%. The same measure, in the same setting: for `COc1ccc(C2c3c(ncn(CCN4CCOCC4)c3=N)Oc3ccc4ccccc4c32)cc1OC` (stereo unspecified) the value was inactive: 4.98%; for `CCN(CC)CCCNC(=O)CSc1c2c(nc3cc(Cl)ccc13)CCCC2`, inactive: -3.79%. For the compound `CCN1/C(=C/C(C)=C/c2sc3ccccc3[n+]2CC)Sc2ccccc21`, the Potency is active: 20.6 µM.

Regarding `OCC1OC(n2cnc3c(NCc4ccco4)ncnc32)C(O)C1O` (stereo unspecified), the “activity change, negative = cytotoxicity” value is inactive: -12.8%. Take `CC(N=C(NC#N)Nc1ccncc1)C(C)(C)C` (stereo unspecified): the “activity change, negative = cytotoxicity” value is inactive: -3.73%. Still for that read-out and setting: for `CC(C)C[C@H]1C(=O)N2CCC[C@H]2[C@]2(O)O[C@](NC(=O)[C@@H]3C=C4c5cccc6[nH]c(Br)c(c56)CC4N(C)C3)(C(C)C)C(=O)N12` (stereo partly specified) the value was inactive: -1.28%. Same read-out and setting: under `Cc1ccc(Cn2cc(C(=O)c3ccc(F)cc3)c(=O)c3cc4c(cc32)OCCO4)cc1` stands inactive: -3.41%. Same read-out and setting: under `N#C/C(=C(/O)c1ccco1)c1nc2ccccc2s1` stands inactive: 0.234%. As to `CCOC(=O)C1=C(C)NC(C)=C(C(=O)OCC)C1C(=O)OCC(=O)N1CCCCC1CC` (stereo unspecified), the “activity change, negative = cytotoxicity” value was inactive: -7.84%. As for `N#C/C(=C/C1=C(N2CCOCC2)C(=C/c2cccc([N+](=O)[O-])c2)/CC1)C(=O)Nc1ccccc1F`, the “activity change, negative = cytotoxicity” value was inactive: -19.6%.

For `O=C(C[C@@H]1C/C=C\CC[C@@H](Cc2ccc(F)cc2)C(=O)OC[C@@H]2CCCN2C1=O)N[C@H](CO)Cc1ccccc1`, the “activity change, negative = cytotoxicity” value was inactive: -18.5%.

Take `O=C(C[C@H]1C/C=C\CC[C@H](Cc2ccc(F)cc2)C(=O)OC[C@H]2CCCN2C1=O)N[C@H](CO)Cc1ccccc1`: the “activity change, negative = cytotoxicity” value is inactive: -0.0111%.

In the case of `C[C@H](CO)N1C[C@H](C)[C@@H](CN(C)S(=O)(=O)c2ccccc2)Oc2c(NC(=O)Nc3ccc(C(F)(F)F)cc3)cccc2C1=O`, the “activity change, negative = cytotoxicity” value is inactive: -9.19%.

Regarding `Cc1nnc(N2CCCC(C(=O)Nc3cc(F)ccc3F)C2)c2nn(-c3ccccc3)c(C)c12` (stereo unspecified), the “activity change, negative = cytotoxicity” value was inactive: -12.8%. Still for that read-out and setting: under `N#Cc1nc(NCC(F)F)nc(Nc2cc(F)cc(F)c2)n1` stands inactive: -8.36%. On the same count and under the same terms, under `C=CC[C@H](CC(=O)NCCO)C(=O)N[C@@H](COC(=O)[C@@H](CC=C)Cc1ccc(F)cc1)Cc1ccccc1` stands inactive: -1.27%. For the compound `Cc1ccc2nc(N3C(=O)C(O)=C(C(=O)c4ccco4)C3c3cccs3)sc2c1` (stereo unspecified), the Potency is active: 14.6 µM. With `COc1cc(NC(=O)CN2C(=O)COc3ccc(S(=O)(=O)N4CCCCC4)cc32)cc(OC)c1`, the “activity change, negative = cytotoxicity” value is inactive: -2.39%. Still for that read-out and setting: under `Cc1oc(-c2ccccc2F)nc1CS(=O)(=O)CC(=O)N1CCN(c2ccccc2)CC1` stands inactive: 7.5%; under `CN(C)CC(C)(C)CNS(=O)(=O)c1ccc(Cl)c(Cl)c1`, inactive: 0.887%.

Consider `C=CC[C@@H](CC(=O)NCCO)C(=O)N[C@@H](COC(=O)[C@@H](CC=C)Cc1ccc(F)cc1)Cc1ccccc1`, for which the “activity change, negative = cytotoxicity” value was inactive: 4.6%.
